These results are taken from PubChem BioAssay AID485344 (National Center for Advancing Translational Sciences (NCATS), 2010).

In all, about 340,000 compounds went through this assay and about 6,900 (2%) were called active. No stated cut-off is given here; in the data, active means inhibition above about 30%; inactive means below that, where a call was filed. The list shows a part of the results, in another mix than the full data. The source gives no active or inactive call for entries shown without one.

Chain of UniProt P14416 (P14416 whole entry, looked up): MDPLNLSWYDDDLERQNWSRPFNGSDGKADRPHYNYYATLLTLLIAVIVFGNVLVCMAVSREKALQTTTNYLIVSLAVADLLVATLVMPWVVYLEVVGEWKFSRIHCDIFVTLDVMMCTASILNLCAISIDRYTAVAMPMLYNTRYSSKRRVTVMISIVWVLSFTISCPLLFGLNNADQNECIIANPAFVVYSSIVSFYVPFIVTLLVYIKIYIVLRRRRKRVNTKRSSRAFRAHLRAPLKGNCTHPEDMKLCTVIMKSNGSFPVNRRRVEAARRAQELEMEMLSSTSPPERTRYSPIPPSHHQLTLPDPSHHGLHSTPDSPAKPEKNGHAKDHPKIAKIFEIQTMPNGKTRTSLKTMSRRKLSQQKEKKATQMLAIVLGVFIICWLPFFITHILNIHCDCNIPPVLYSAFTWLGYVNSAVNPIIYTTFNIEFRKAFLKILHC

The target in the assay is D(2) dopamine receptor (Homo sapiens) (UniProt P14416). Nature of the assay: HTS Assay for Allosteric Antagonists of the Human D2 Dopamine Receptor: Primary Screen for Antagonists. Further: 0% is about no effect. As to conditions: HEK293 TREx D2 cells, calcium flux, dopamine EC80; at 10 µM; stronger effect = higher value. Summed up:
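Cells plated overnight at 30 C with tetracycline; no-wash calcium dye, 30–90 min RT; 10 s baseline; compound pinned; 180 s read; EC80 dopamine added; another 180 s read.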
On to `COCCCNC(=O)C1CCN(Cc2cc3ccccc3n2Cc2ccccc2C)CC1`, for which the inhibition came to 7.54%. Next, `CC1CCC(NC(=O)c2ccc(-n3cncn3)c([N+](=O)[O-])c2)CC1` (stereo not drawn): active: 35.6%. Under `Cc1ccc(S(=O)(=O)c2c(O)cc(C)c(NS(=O)(=O)c3ccc(Br)cc3)c2C)cc1` stands 2.81%. Next, `COc1ccc(C)cc1NC(=O)c1ccc(NS(=O)(=O)c2c(C)noc2C)cc1`: 18.7%; `CCC(C(=O)Nc1cccc(Cl)c1C)n1nc(C)c2sc3ccccc3c2c1=O` (stereo not drawn): -0.525%; `COc1ccc(-c2noc(CN(C)S(=O)(=O)c3c(C)cc(C)cc3C)n2)cc1OC`: -8.7%. Consider `CC(=O)N1c2ccccc2C(=O)C1N1CCN(c2ccccc2F)CC1` (stereo not drawn), for which the inhibition worked out at 2.55%. On to `CCOC(=O)c1cnc2cc(C(F)(F)F)ccc2c1Nc1cc(C)ccc1OC`, for which the inhibition amounted to 3.98%. Under `CCOC(=O)c1ccc(NC2=CC(c3ccc(OCC)cc3)N(c3ccc(C(=O)OCC)cc3)C2=O)cc1` (stereo not drawn) stands 28.1%; under `CCc1cc(C(=O)OC)c(NC(=O)CC2SC(N)=NC2=O)s1` (stereo not drawn), active: 31%. Next, `Cc1ccc(-c2nc(CCNC(=O)c3ccc(C)c(C)c3)cs2)cc1`: 23.6%; `CC(C)(C)OC(=O)N1CCC(c2c(C(=O)NCc3ccccc3)cnn2-c2cccc(F)c2)CC1`: 11.2%.

On to `COc1ccccc1NC(=O)Cn1c(O)c(N=NC(=O)c2ccccc2O)c2ccccc21`, for which the inhibition is active: 55.1%. Turning to `COc1ccccc1-c1nc2n(n1)C(c1ccccc1Cl)C(C(=O)Nc1cccnc1)=C(C)N2` (stereo not drawn), the inhibition was found to be 26.9%. Under `CCOc1ccccc1NC(=O)CSc1nnc2[nH]c(=O)cc(C)n12` stands -21.9%; under `Cc1cc(O)c(C(c2ccccc2)N2CCCCC2)c(=O)n1Cc1ccco1` (stereo not drawn), 11.7%.

For `CCCCn1cc(S(=O)(=O)c2ccc(C)cc2)c(=O)c2cc(F)c(N3CCCCC3)cc21`, the inhibition is -8.06%. Under `O=C(COC(=O)/C=C/c1cccc(F)c1)NNC(=O)c1ccccc1` stands active: 45.4%; under `COc1ccc(CCNC(=O)CCc2c(C)c3cc4c(C)c(C)oc4cc3oc2=O)cc1OC`, -4.28%. Take `O=C(COC(=O)/C=C/c1ccccc1)Nc1ccccc1Br`: the inhibition is active: 40.1%. For the compound `O=C(Cn1ncn2c(cc3sccc32)c1=O)NCCc1ccccc1`, the inhibition was -5.36%. Turning to `O=C(CSc1nc2ccccc2nc1Cc1ccc(Cl)cc1)Nc1ccc2c(c1)OCO2`, the inhibition was 4.49%. Next, `Cc1ccc2c(=O)cc(C(=O)Nc3ccc(S(=O)(=O)N(C)c4ccccc4)cc3)oc2c1C`: 7.75%; `Cc1ccc(-c2nc3c(c(SCc4ccc(Br)cc4)n2)Cc2c(CO)cnc(C)c2O3)cc1`: 0.448%. In the case of `C=CC[C@@H]1C=C[C@H](O/N=C/[C@@H](NS(=O)(=O)c2ccc(C)cc2)[C@H](C)/C=C/CC(=O)OC)[C@@H](CO)O1`, the inhibition is active: 31%.

Consider `COc1ccc(Nc2nc(C(=O)N3CCc4ccccc4C3)cs2)cc1`, for which the inhibition is active: 81.5%. Under `O=C(CSc1nc2c([nH]c3ccccc32)c(=O)n1-c1ccc(Cl)cc1)N1CCc2ccccc21` stands -20.2%; under `CSc1cccc(NC(=O)c2cnn(-c3ccc(F)cc3)c2-n2cccc2)c1`, 7.48%. Next, `Cc1cccc(-c2nc(CN3CCCC(C(=O)N4CCN(c5cc(Cl)ccc5C)CC4)C3)c(C)o2)c1` (stereo not drawn): 3.19%; `COc1ccccc1N1CCN(CCCOc2ccc(F)cc2)CC1`: active: 89.3%.

Take `Cc1cc(/C=C2\NC(=S)N(C)C2=O)ccc1N1CCCC1`: the inhibition was active: 41.7%.

Consider `Cc1ccc(CSc2nc3cccnc3n2Cc2ccc(C(=O)NCc3ccco3)cc2)cc1`, for which the inhibition is 1.4%.

Regarding `Oc1ccc(Cl)cc1C1=Nc2ccccc2N=C(c2ccccc2)C1`, the inhibition was -8.89%. Next, `COc1ccc(OC)c(NC(=O)c2ccc(CN3CCc4ccccc4C3)cc2)c1`: active: 40.9%.

`CC(C)(C)C(=O)Nc1ccc(-c2nc3ccc(NC(=O)C(C)(C)C)cc3[nH]2)cc1`: the inhibition came out at 3.47%.

Take `Cc1ccc(S(=O)(=O)NCC2CCC(C(=O)NCCc3ccccc3)CC2)cc1` (stereo not drawn): the inhibition was 3.49%.

Consider `CCc1nc2ccc(C(=O)N3CCN(c4cc(Cl)ccc4C)CC3)cc2nc1CC`, for which the inhibition amounted to 13.3%. Next, `CC(=O)Nc1ccc(S(=O)(=O)NC2(C(F)(F)F)C(=O)Nc3c2c(=O)[nH]c(=O)n3-c2cccc(Cl)c2)cc1` (stereo not drawn): -5.77%; `CCOC(=O)c1cnc2cc(C(F)(F)F)ccc2c1Nc1ccc(F)cc1F`: -9.36%. As for `COC(=O)CC(NS(=O)(=O)c1cccs1)c1ccccc1Cl` (stereo not drawn), the inhibition was active: 34.7%.

For `CCC(=O)N1CCc2cc(CNS(=O)(=O)c3cc(OC)ccc3OC)ccc21`, the inhibition came out at 6.18%. `CC(NC(=O)c1ccc2c(c1)N(Cc1ccc(Cl)cc1)C(=O)CS2)c1ccccc1` (stereo not drawn): the inhibition is -3.46%.

Turning to `CCN(c1cccc(C)c1)S(=O)(=O)c1cc(Br)cc2c1N(C(C)=O)C(C)C2` (stereo not drawn), the inhibition was -8.01%. Next, `CC1CCN(C(=O)CSc2n[nH]c(-c3ccc(F)cc3)n2)CC1`: -15%; `CCc1ccc(-n2nnc(-c3nc(-c4cccs4)no3)c2N)cc1`: 13.1%; `CC(C)OC(=O)c1ccc(Cn2nnc3sc4c(c3c2=O)CCCC4)cc1`: 2.09%.

For the compound `CCCN(c1c(C)n(C)n(-c2ccccc2)c1=O)S(=O)(=O)c1ccc(C)cc1`, the inhibition was determined as 0.825%.

`COC(=O)CSc1ncc2c(n1)-c1ccccc1N(Cc1ccc(Cl)cc1)S2(=O)=O`: the inhibition was -4.04%. Next, `COc1ccc(CCn2c3c(c(=O)[nH]c2=O)C(NC(=O)c2ccc(Cl)cc2)(C(F)(F)F)C(=O)N3)cc1OC` (stereo not drawn): 3.77%; `COc1ccc(CNc2ncnc3c2nc2n3CCCC2)cc1`: 7.58%; `Cc1cccc(CNC(=O)Cn2c(-c3cccs3)cc3ccccc32)c1`: -3.11%.

With `COc1ccc(NC(=O)c2c(C)oc3ccc(O)c(CN4CCC(C)CC4)c23)cc1Cl`, the inhibition came to 10.9%. Under `COc1cccc(NC(=O)CN2C(=O)c3cccc4cccc2c34)c1` stands -5.92%; under `Cn1ncc2c(Nc3cc(C(F)(F)F)ccc3Cl)ncnc21`, 12.1%. Under `Cc1ccc(-n2ncc(C(=O)N3CCN(c4cc(Cl)ccc4C)CC3)c2C2CCN(C(=O)OC(C)(C)C)CC2)cc1` stands 13.4%; under `Cc1ccc(C)c(Cn2c3ccccc3c3cnn(CC(=O)NC(C)CCc4ccccc4)c(=O)c32)c1` (stereo not drawn), -1.19%; under `COc1ccc(CCNC(=O)c2ccc3c(c2)N(Cc2ccccc2)C(=O)c2ccccc2S3=O)cc1OC` (stereo not drawn), 4.75%. As to `COC(=O)c1ccc(Cl)cc1NC(=O)Nc1nnc(N2CCCC2)s1`, the inhibition is -6.53%. Next, `CCOc1ccc(NC(=O)C(Cc2ccccc2)NS(=O)(=O)c2ccc3c(c2)oc(=O)n3C)cc1` (stereo not drawn): -19.2%. Next, `COc1cc(CO)ccc1Oc1nnnn1-c1ccc(C(N)=O)cc1`: active: 31.1%.

In the case of `COc1ccccc1C(=O)Nc1ccc2nc(SCC(=O)N(C)c3ccccc3)sc2c1`, the inhibition was found to be 16.7%. Under `CCS(=O)(=O)c1ncc(N(Cc2ccccc2)Cc2ccco2)c(C(=O)Nc2cccc(Cl)c2C)n1` stands 10.5%; under `CCOc1ccc(NC(=O)c2c(Nc3ccccc3C)sc(C(=O)c3ccccc3)c2N)cc1`, -16.7%.

For the compound `O=C(CN1C(=O)C2(SCC(=O)N2c2cccc(Cl)c2)c2ccccc21)NCCc1ccccc1` (stereo not drawn), the inhibition was -3.14%. Next, `CCOc1ccc(CNC(=O)c2ccc3c(c2)c(C)c(C)n3Cc2ccccc2)cc1OC`: -2.69%; `Cc1ccc2oc(=O)c3cnn(CC(=O)N4CCN(c5ccc(F)cc5)CC4)c3c2c1`: 9.73%; `COc1ccc([N+](=O)[O-])cc1NC(=S)NC(NC(=O)C(c1ccccc1)c1ccccc1)C(Cl)(Cl)Cl` (stereo not drawn): active: 71.3%. Turning to `Cc1ccc(Nc2c(-c3c[nH]c4ccccc34)nc3ccccn23)cc1`, the inhibition stood at 14.4%. Next, `CC(C)Oc1ccccc1-c1nc(SCC(=O)c2ccc(F)cc2)n[nH]1`: 6.74%. Under `Cc1ccc(CNC(=O)CSc2nc3c(sc4ccccc43)c(=O)n2CCCOC(C)C)cc1` stands 2.93%; under `Cc1ccc(NC(=O)Cn2c(=O)n(Cc3ccccc3)c(=O)c3sc4ccccc4c32)cc1`, -22%; under `Cc1ccc(-n2c(=O)c3sc4ccccc4c3n(CC(=O)NC3CCCC3)c2=O)cc1C`, -1.4%.

Consider `COc1ccc(OC)c(CCNC(=O)c2cc3c(s2)-c2c(C)cccc2OC3)c1`, for which the inhibition was found to be 22.7%. Next, `Fc1ccc(C(c2nnc(-c3ccccc3)o2)N2CCN(c3cccc(Cl)c3)CC2)cc1` (stereo not drawn): -4.16%; `Cn1c2ccccc2c2cnn(CC(=O)NCCCN3CCCCC3)c(=O)c21`: -3.52%; `CCOc1ccc(NC(=O)CSc2cn(CCNC(=O)c3ccccc3F)c3ccccc23)cc1`: 2.68%.

As for `COc1ccc(CN2C(=O)C(NC(=O)c3cccc(C)c3)(C(F)(F)F)N=C2c2ccccc2)cc1` (stereo not drawn), the inhibition amounted to 4.09%. As for `CCc1ccccc1NC(=O)CSc1nncn2c1cc1oc(C)cc12`, the inhibition is 9.26%. Next, `Cc1ccc(S(=O)(=O)N2CCC(C(=O)N3CC(C)OC(C)C3)CC2)cc1` (stereo not drawn): active: 50.5%; `O=C(NCCS(=O)(=O)N1CCN(c2ccc(F)cc2)CC1)C(c1ccccc1)c1ccccc1`: 17.5%; `CC(=O)c1cccc(NC(=O)CSc2nnc3ccc(-c4ccc(Br)cc4)nn23)c1`: 15.5%. Next, `CCOc1ccccc1NC(=O)CCn1c(-c2ccc(OC)cc2)cc(C(C)=O)c1C`: 6.92%.

For the compound `CCOc1ccccc1NC(=O)C(C)Sc1cc(-c2ccccc2)nc(C)n1` (stereo not drawn), the inhibition is -5.86%. Next, `Cc1ccc(NCc2cccn2-c2nnc(N3CCCCCC3)s2)cc1`: 1.53%.

On to `COc1ccc(-c2nnc(SCC(=O)Nc3cccc(F)c3)s2)cc1`, for which the inhibition turned out to be 4.07%. Turning to `Cn1c(=O)cc(SCC(=O)NCc2ccc(F)cc2)c2ccc(Cl)cc21`, the inhibition was -24.6%. Next, `CCCCNC(=O)C1CCN(S(=O)(=O)c2cc(Br)cc3c2N(C(=O)CC)CC3)CC1`: 13%. Under `COc1cc(Cl)c(C)cc1NC(=O)CCc1nc2cccnc2n1-c1ccccc1` stands 8.23%; under `CC1=C(C(=O)Nc2ccccc2)C(c2ccccc2)n2nc(-c3ccco3)nc2N1` (stereo not drawn), 0.71%; under `CC(=O)Nc1nnc(SCc2cc(=O)c3cc(C)ccc3[nH]2)s1`, -2.07%. Under `COc1ccc(NC(=O)Cn2c(SCc3cccc(Cl)c3)nc3ccncc32)c(OC)c1OC` stands -11.1%; under `Nc1nc(-c2ccc(Cl)cc2)cn1N`, active: 30.2%; under `Cc1ccc(S(=O)(=O)N(C)C)cc1NC(=O)COC(=O)c1n[nH]c(=O)c2ccccc12`, active: 51.7%.
